Source: publication PMC12136788
Some of the results follow.

T1: UNK ZnF1-3 (human, UniProt Q9C0B0 31-174)
T1 sequence: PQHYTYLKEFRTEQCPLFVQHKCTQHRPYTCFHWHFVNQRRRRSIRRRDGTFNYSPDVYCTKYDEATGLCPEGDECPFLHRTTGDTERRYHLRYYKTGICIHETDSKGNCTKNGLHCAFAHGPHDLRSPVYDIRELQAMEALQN

B1: chr4:95690885:95690886:+_ENSMUSG00000028572_ENSMUST00000156910|mus_mus|mus_mus_mus_hu_False|38_58 (ssRNA)
RNA: GGGAGUUCUACAGUCCGACGAUCUUUAGAAAAUGUUAAAUACCAUGCUAAAAUAUUUUCAAAGGCUUAUUUUAUUUUACUAAAAGACACAGGCAAGCAGACACCAUAAGAAUAUAUGAAAAUGAAACUCAACAAUAUAACUGUCAACAGAGGAUUGAGCAUCA
B2: chr22:42032659:42032660:+_ENSG00000196419_ENST00000405878|hu_mus|FALSE|FALSE (ssRNA)
RNA: GGGAGUUCUACAGUCCGACGAUCGUCUUCAUUGGUGAACAGCAUGAUCCUCUUGUGACUCAUCUUGAGCUGGACGUCGCUGAAGAGGUUGGCACAGACCCAGAGCACUUCACUCAAAGAGUAGUCAGACCCAUGGCCAACCGUCAACAGAGGAUUGAGCAUCA
B3: chrX:98862621:98862622:+_ENSMUSG00000034160_ENSMUST00000044475|mus_hu|mus_mus_mus_hu_False|68_78 (ssRNA)
RNA: GGGAGUUCUACAGUCCGACGAUCCUGCAUCUCCUUUAGAGUGUUUCCCAUAUUAGAAUAAGCAUCAGCAAAUGUAGGACUGAUUCGAAUAGCCUCCUUAUAAUGCAUCAGAGCUUCCUGCAGUUUUCCCUGCUGCUGCAGUACCAACAGAGGAUUGAGCAUCA
B4: chr2:24646365:24646366:-_ENSMUSG00000036893_ENSMUST00000102938|mus_mus|FALSE|FALSE (ssRNA)
RNA: GGGAGUUCUACAGUCCGACGAUCUUAUUGAUUUCAUUGAAAACAGAACAAGAAAUGGUCUGAGCCAAAAGACUGCUCAUAAAACUGUCAAAAAACAUUUUAACAGAAAAAAAUAAACAUGACUGCAUUAUGAAUGUUUUAGAACAACAGAGGAUUGAGCAUCA
B5: 128470954_128474126_3443_CDS_ENSMUSG00000014355_ENSMUST00000014499|mouse|control|control (ssRNA)
RNA: GGGAGUUCUACAGUCCGACGAUCAAGGGCCAUAGUUCGCUGACACAACUGGAGCAGUCUGUUUUCCUUUUCUUCAAUGAACUCAUGGUCACUGAGUUCUGGGUACUGCACCACAUUGACACGGACAGGCUGUGCACUUUGAAGCAACAGAGGAUUGAGCAUCA
B6: chr8:47723363:47723364:+_ENSMUSG00000031628_ENSMUST00000093517|mus_mus|FALSE|FALSE (ssRNA)
RNA: GGGAGUUCUACAGUCCGACGAUCGGAGAAGGACUCGAAUUCCGUUGCCACCUUCCUGUUAACGCGAGUGAGAAUGUGCAUAAAUUCUAGCUUGUGCGCGUACAGCUUCAGCAUGCUGCAAAGGGACUGGAUGAACCACGACCCCAACAGAGGAUUGAGCAUCA
B7: chr9:42776281:42776282:-_ENSMUSG00000059495_ENSMUST00000165665|mus_mus|motif|central (ssRNA)
RNA: GGGAGUUCUACAGUCCGACGAUCAAACCUCCUCAAGUCUGCAACUCUCCCACCCACCCCCCAUAGCACCCCCACCACCACGGAGCAUUCCAUUCCUUUGUUCCUAUUUCCUGCUCACUCUGCAGGGAAUAUUUCAUACAAGUGCAACAGAGGAUUGAGCAUCA
B8: 103088726_103090153_1953_CDS_ENSG00000136891_ENST00000374902|human|control|control (ssRNA)
RNA: GGGAGUUCUACAGUCCGACGAUCUGCAGGGAGAACCACCACAGCACCUUCUUGUGGAUCAUAAAUUCGGAGGGCAGUAGCUUGUAAACUUUUUAGUAAUUCUUUAUUUGCUCGUGCUGCAGCGGUAUGAAUGAUAUCGAUAAGCAACAGAGGAUUGAGCAUCA
B9: chr12:42180722:42180723:-_ENSMUSG00000036295_ENSMUST00000043884|mus_hu|mus_mus_mus_hu_True|18_88 (ssRNA)
RNA: GGGAGUUCUACAGUCCGACGAUCCUGUAGGAGAAGAAUCUGUGUGUCGGCAGGCAAUCUGGCUGGGAAAGUUAAAAGACCUAAAUCAUUACAAUCCACUGUAGAUGCUUCCAUAUAGAUGGAUCUCGGUGUAAACCAAGGCCUCAACAGAGGAUUGAGCAUCA
B10: 106707438_106713778_1258_3pUTR_ENSMUSG00000018363_ENSMUST00000103067|mouse|control|control (ssRNA)
RNA: GGGAGUUCUACAGUCCGACGAUCUGAUGUUGCUAAGAUCCCUAGGCACUCGUGGAUCAUGCCAUGUGCUCACACCAGUCUGAGUAUGUAAGAAAUAUACCUGACCCUGCUGCGUUGUCCUUUGUUCAUAGCCUUCCGGUAGGUCAACAGAGGAUUGAGCAUCA
B11: chr14:53324496:53324497:-_ENSG00000073712_ENST00000341590|hu_hu|motif|central (ssRNA)
RNA: GGGAGUUCUACAGUCCGACGAUCAUUGUAAUGCAAAGAGUUGCAUAUUUUAGGCAGACAGUGAUUAUGCUGGUGAAUACGGAAAGUGUAAUACAAUAUGGUGUAAAAAUAAAAACACGAGACAAUAUACAUAACAUGCUUAUUCAACAGAGGAUUGAGCAUCA
B12: chr6:108246082:108246083:-_ENSG00000025796_ENST00000369002|hu_mus|FALSE|FALSE (ssRNA)
RNA: GGGAGUUCUACAGUCCGACGAUCUGUUUUGGAAACUUUGUAUGCAAGAAAUAAGAACAGUGCCCAUCCUGCAAGCAGAACUAUUUUCUUUACUGUAGGAAUAAUAUUUGGCUGGGGUUUUAAUAACCGUAAACGAUACCACAUCAACAGAGGAUUGAGCAUCA
B13: 66274149_66274269_2242_3pUTR_ENSMUSG00000024098_ENSMUST00000024906|mouse|control|control (ssRNA)
RNA: GGGAGUUCUACAGUCCGACGAUCUAAUGAGAUAUGCACUAGAGAAAAUAGCAAUUCUAUAAAAUUGAACCUGUGUAUUAUAGAUAUUUGUUUUUGAUUCAUGCUUGAAGGUGAGAAUUUUAUUACUAGGAAGGGCGUGUAGUACAACAGAGGAUUGAGCAUCA
B14: chr9:114657494:114657495:+_ENSMUSG00000032434_ENSMUST00000035007|mus_hu|FALSE|FALSE (ssRNA)
RNA: GGGAGUUCUACAGUCCGACGAUCCCAGCUGAGAAUGUAUCUGUCAAUCCUGACUAAGCCCAAUACAUGGGUGGUGACCCUGAGGUAGCCCAGAUGAUAUGCUCUGAAUUUUAGAUAGGUCUAAAUCACAAUGGUACAGUCUGACAACAGAGGAUUGAGCAUCA
B15: chr11:121174221:121174222:+_ENSG00000109929_ENST00000392789|hu_mus|FALSE|FALSE (ssRNA)
RNA: GGGAGUUCUACAGUCCGACGAUCGGUUGCACAGAAGAAGUAGAGAAUGUAAGCACCCAGGUUUGUGACAAUCAGGAGGCUAAUAGUUUGUCGGAUGAUGUUGUCCUCGGGCCACGUGGCUGGAUAUACAUACGGAGUGAAGAACAACAGAGGAUUGAGCAUCA
B16: chr7:107985766:107985767:+_ENSMUSG00000029461_ENSMUST00000049053|mus_mus|FALSE|FALSE (ssRNA)
RNA: GGGAGUUCUACAGUCCGACGAUCAUCCCUAGCAAAAUUUUUGUAGGUAAAAUGCCAGUAGUAGGACGGCUGCAUUUAAUGCUAAUUUACAGUGAGGUUCAGAGAAGUCCUUUCUGCUUCUCUGGGCCUCAGUUUCCUCAUCUGCAACAGAGGAUUGAGCAUCA
B17: chr2:86849987:86849988:-_ENSG00000239305_ENST00000237455|hu_mus|FALSE|FALSE (ssRNA)
RNA: GGGAGUUCUACAGUCCGACGAUCCACAAUGGCCUCAAAAAACCUGGCCAGGACGAACAGGACCAGGAAAUACAGGAGCAAGAAAAACAGCUUCAGCCACAUCUUCGCCCUCUUGGCGUCGCCAGGAGCCGGGACGCCGUGGACCAACAGAGGAUUGAGCAUCA
B18: chr19:8913615:8913616:-_ENSMUSG00000071658_ENSMUST00000096259|mus_hu|mus_mus_mus_hu_False|28_108 (ssRNA)
RNA: GGGAGUUCUACAGUCCGACGAUCAGGGGGGCACCAACUUCUGCCUGAAAUGGGUGCCCCACCCAGUAGGGAGUUGCAGCUGAAAGUAUCUGAUGCAGAAGCAGUGAAUGCAGAGAAGGAGGCCCCUGGGGAGGGCCAGGCCAGCAACAGAGGAUUGAGCAUCA
B19: chr18:34474267:34474268:+_ENSMUSG00000005871_ENSMUST00000115781|mus_mus|motif|central (ssRNA)
RNA: GGGAGUUCUACAGUCCGACGAUCUUCUGAUUCAGUUUCAUUCCCAUUGUCGUUUUCCUGAACUGGAGGCAUGAUUCUUAAUUCGGCAUCUUUCUGUAUAAAUGGCUCAUCCAGGCUCAGAGCACUUAGGCUGGAGGAACAAGACAACAGAGGAUUGAGCAUCA
B20: chr22:32879901:32879902:+_ENSG00000100225_ENST00000397426|hu_mus|hu_hu_hu_mus_False|18_58 (ssRNA)
RNA: GGGAGUUCUACAGUCCGACGAUCCUCUUCCAUACUCAUGGCAUCCUGAAUUGACUCAGCUUCAACAUUUUGACUAGGCCCUAACAUACUGUCAUCAGUCCAGGCAUCAAAUGGGGUUGCCUGUCCUUGGGAUGAAUCAGUCCCCAACAGAGGAUUGAGCAUCA
B21: chr10:120830595:120830596:-_ENSG00000107581_ENST00000369144|hu_hu|motif|central (ssRNA)
RNA: GGGAGUUCUACAGUCCGACGAUCUUUGAAAGCUUGCUGGGCAAUAUCAUGGUACAGGCGCUCUACUCUAGAAUUGUUUCGGAGAAGGUCCAAACACUGCCUGUAAGACUCCCACAGGAAUUUAACCCAUGGAGUUAAAAGUAACAACAGAGGAUUGAGCAUCA
B22: chr1:163117127:163117128:-_ENSG00000143248_ENST00000313961|hu_mus|hu_hu_hu_mus_False|18_38 (ssRNA)
RNA: GGGAGUUCUACAGUCCGACGAUCUGCUACAAAGGAUGUAACUCAACUCACAGGGCAACUUUUGGAAGCCUGACCAGAUGACUACUUGAUUAGCUCCUGAUAAAACUCAGAGCGCACAAAGCGAGGCAGAGAAUCCUUCUCCAUCAACAGAGGAUUGAGCAUCA

Molecular target: T1, UNK ZnF1-3
Assay: nsRBNS (natural sequence RNA bind-n-seq); RBNS binding buffer (assumed for nsRBNS): 25 mM Tris pH 7.5, 150 mM KCl, 3 mM MgCl2, 0.01% Triton X-100, 500 ug/ml BSA, 20 U/ml SUPERase-In, 4 C; UNK is unkempt and MSI1 is Musashi-1; names of the RNAs are library labels; protein concentration not given here; high values mean tight binding

How did the binding signal turn out when B1 was run?
The binding signal was 2.48 enrichment R.

For B2, which binding signal is on record?
Its binding signal is 1.1 enrichment R.

For B3, which binding signal is on record?
The binding signal was 1.19 enrichment R.

How did the binding signal turn out when B4 was run?
The binding signal was 0.566 enrichment R.

Which binding signal does the source give for B5 here?
Its binding signal is 0.731 enrichment R.

B6 was tested. Which binding signal did it give?
The binding signal was 1.22 enrichment R.

How did the binding signal turn out when B7 was run?
The binding signal was 0.406 enrichment R.

Which binding signal does the source give for B8 here?
The binding signal was 1.16 enrichment R.

For B9, which binding signal is on record?
The binding signal was 0.868 enrichment R.

B10 was tested. Which binding signal did it give?
Its binding signal is 0.708 enrichment R.

How did the binding signal turn out when B11 was run?
Its binding signal is 1.19 enrichment R.

How did the binding signal turn out when B12 was run?
The binding signal was 0.751 enrichment R.

B13 was tested. Which binding signal did it give?
Its binding signal is 1.77 enrichment R.

For B14, which binding signal is on record?
Its binding signal is 0.906 enrichment R.

B15 was tested. Which binding signal did it give?
Its binding signal is 1.98 enrichment R.

With B16 as the binder, how does the binding signal read?
Its binding signal is 0.746 enrichment R.

How did the binding signal turn out when B17 was run?
The binding signal was 1.09 enrichment R.

For B18, which binding signal is on record?
Its binding signal is 1.17 enrichment R.

How did the binding signal turn out when B19 was run?
Its binding signal is 0.923 enrichment R.

Which binding signal does the source give for B20 here?
Its binding signal is 1.09 enrichment R.

With B21 as the binder, how does the binding signal read?
The binding signal was 0.841 enrichment R.

For B22, which binding signal is on record?
Its binding signal is 1.15 enrichment R.
